Results from patent EP1366764A1, “Method of screening for calcium receptor-active molecules” (The Brigham & Women's Hospital, Inc., priority 1993, dated 1994).

Tested on: bovine parathyroid cells
Format: cell-based
Settings: at concentrations that caused the mobilization of intracellular Ca2+; 30 min, 0.5 mM extracellular Ca2+
Protocol: Cells were suspended in PCB containing 0.5 mM CaCl2 and 0.1% BSA.
Counting of samples and data reduction were performed on a Packard Cobra 5005 gamma counter.

SMILES	inhibition of PTH secretion
NC[C@@H]1O[C@H](O[C@H]2[C@@H](O)[C@H](O[C@@H]3[C@@H](O)[C@H](N)C[C@H](N)[C@H]3O[C@H]3O[C@H](CN)[C@@H](O)[C@H](O)[C@H]3N)O[C@@H]2CO)[C@H](N)[C@@H](O)[C@@H]1O [neomycin B]	inhibited PTH secretion to the same extent as extracellular Ca^2+
NCCCNCCCCNCCCN [spermine]	inhibited PTH secretion to the same extent as extracellular Ca^2+
